Some of the results follow.
B1: Q9UKT9 (peptide)
chain: LACNQCGFACTQKGNLLRHIKL
B2: Q9UKT9 (peptide)
chain: FSCDVCGAGFTQKGNLLRHIKL
B3: Q9UKT9 (peptide)
chain: LLCPICGFTCTQKGNLLRHIKL
B4: Q9UKT9 (peptide)
chain: FRCNVCGARFTQKGNLLRHIKL
B5: Q9UKT9 (peptide)
chain: FNCDVCGAHFTQKGNLLRHIKL
B6: Q9UKT9 (peptide)
chain: FICPVCGASFTQKGNLLRHIKL
B7: Q9UKT9 (peptide)
chain: FECSVCGHFFTQKGNLLRHIKL
B8: Q9UKT9 (peptide)
chain: LTCPICGFRCTQKGNLLRHIKL
B9: Q9UKT9 (peptide)
chain: FRCEICGRNFTQKGNLLRHIKL
B10: Q9UKT9 (peptide)
chain: FWCDVCGANFTQKGNLLRHIKL
B11: Q9UKT9 (peptide)
chain: FGCPICGASFTQKGNLLRHIKL
B12: Q9UKT9 (peptide)
chain: FRCNQCGHFFTQKGNLLRHIKL
B13: Q9UKT9 (peptide)
chain: FFCPICGRHFTQKGNLLRHIKL
B14: Q9UKT9 (peptide)
chain: FYCEVCGADFTQKGNLLRHIKL
B15: Q9UKT9 (peptide)
chain: FTCPICGHTFTQKGNLLRHIKL
B16: Q9UKT9 (peptide)
chain: FSCNVCGAEFTQKGNLLRHIKL
B17: Q9UKT9 (peptide)
chain: FSCNQCGREFTQKGNLLRHIKL
B18: Q9UKT9 (peptide)
chain: FACPICGHSFTQKGNLLRHIKL
B19: Q9UKT9 (peptide)
chain: FRCDVCGAQFTQKGNLLRHIKL
B20: Q9UKT9 (peptide)
chain: LTCPICGFNCTQKGNLLRHIKL
B21: Q9UKT9 (peptide)
chain: FMCEICGHAFTQKGNLLRHIKL
B22: Q9UKT9 (peptide)
chain: FMCPICGRLFTQKGNLLRHIKL
B23: Q9UKT9 (peptide)
chain: FLCDVCGAKFTQKGNLLRHIKL
B24: Q9UKT9 (peptide)
chain: FSCNQCGHIFTQKGNLLRHIKL
B25: Q9UKT9 (peptide)
chain: FVCPICGHVFTQKGNLLRHIKL
B26: Q9UKT9 (peptide)
chain: FTCNQCGAVFTQKGNLLRHIKL
B27: Q9UKT9 (peptide)
chain: FECEICGAMFTQKGNLLRHIKL
B28: Q9UKT9 (peptide)
chain: FSCDVCGAYFTQKGNLLRHIKL
B29: Q9UKT9 (peptide)
chain: FQCPICGRQFTQKGNLLRHIKL
B30: Q9UKT9 (peptide)
chain: FNCNVCGATFTQKGNLLRHIKL
B31: Q9UKT9 (peptide)
chain: LDCEICGFVCTQKGNLLRHIKL
B32: Q9UKT9 (peptide)
chain: LDCPICGFRCTQKGNLLRHIKL
B33: Q9UKT9 (peptide)
chain: FYCPICGRNFTQKGNLLRHIKL
B34: Q9UKT9 (peptide)
chain: FSCSVCGHDFTQKGNLLRHIKL
B35: Q9UKT9 (peptide)
chain: FYCEICGHHFTQKGNLLRHIKL
B36: Q9UKT9 (peptide)
chain: LACNQCGFMCTQKGNLLRHIKL
B37: Q9UKT9 (peptide)
chain: FCCPVCGAQFTQKGNLLRHIKL
B38: Q9UKT9 (peptide)
chain: FRCNICGAAFTQKGNLLRHIKL
B39: Q9UKT9 (peptide)
chain: FCCDVCGATFTQKGNLLRHIKL
B40: Q9UKT9 (peptide)
chain: FMCEVCGAPFTQKGNLLRHIKL
B41: Q9UKT9 (peptide)
chain: FWCNQCGAWFTQKGNLLRHIKL
B42: Q9UKT9 (peptide)
chain: FWCEQCGAYFTQKGNLLRHIKL
B43: Q9UKT9 (peptide)
chain: FICPICGRKFTQKGNLLRHIKL
B44: Q9UKT9 (peptide)
chain: FQCDQCGASFTQKGNLLRHIKL
B45: Q9UKT9 (peptide)
chain: FKCNQCGRCFTQKGNLLRHIKL
B46: Q9UKT9 (peptide)
chain: FDCNICGAGFTQKGNLLRHIKL
B47: Q9UKT9 (peptide)
chain: FECNVCGARFTQKGNLLRHIKL
B48: Q9UKT9 (peptide)
chain: FCCNVCGAWFTQKGNLLRHIKL
B49: Q9UKT9 (peptide)
chain: FWCEVCGAMFTQKGNLLRHIKL
B50: Q9UKT9 (peptide)
chain: FKCEICGHIFTQKGNLLRHIKL

target: no compound (DMSO); test: log2 fold change of degron read counts, EGFP-low vs EGFP+ sorted cells; higher = lower degron-EGFP level without compound (poor expression or instability); details: compound: DMSO control; 18 h
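Also: jurkat cells carrying a lentiviral library of mutant zinc finger degrons fused to EGFP plus mCherry, mCherry+ cells FACS sorted, degron abundance counted by next-generation sequencing.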

| Sequence | log2 fold change of degron read counts |
| --- | --- |
| B1 | 0.356 |
| B2 | -1.7 |
| B3 | 0.000522 |
| B4 | -0.541 |
| B5 | -0.89 |
| B6 | -1 |
| B7 | -0.719 |
| B8 | 0.656 |
| B9 | -2.68 |
| B10 | -0.501 |
| B11 | -0.0511 |
| B12 | 0.583 |
| B13 | -0.556 |
| B14 | -1.67 |
| B15 | -0.654 |
| B16 | -1.29 |
| B17 | -0.844 |
| B18 | -0.726 |
| B19 | -2.33 |
| B20 | 0.657 |
| B21 | -1.48 |
| B22 | 0.65 |
| B23 | -1.68 |
| B24 | 0.442 |
| B25 | -0.284 |

| Sequence | log2 fold change of degron read counts |
| --- | --- |
| B26 | -1.12 |
| B27 | -1.62 |
| B28 | -1.1 |
| B29 | 0.227 |
| B30 | -1.4 |
| B31 | 1.02 |
| B32 | 0.479 |
| B33 | -1.61 |
| B34 | -0.75 |
| B35 | -0.526 |
| B36 | 0.0618 |
| B37 | -0.106 |
| B38 | -0.0337 |
| B39 | -2.02 |
| B40 | -0.836 |
| B41 | 1.75 |
| B42 | 0.103 |
| B43 | -0.8 |
| B44 | -2.69 |
| B45 | -1.15 |
| B46 | -0.605 |
| B47 | -0.862 |
| B48 | 0.446 |
| B49 | -0.687 |
| B50 | -1.37 |

Source: the supplement of paper PMC12645437, “Orthogonal IMiD-Degron Pairs Induce Selective Protein Degradation in Cells” (ACS Chemical Biology, 2025)
